# Measured values as given in the RNAGym collection of RNA variant scans (doi:10.7554/elife.90254).
# The source gives no read counts; variants with many changes may rest on few reads.
# B1: LINE1-full (parent)
# chain: UACGUAGGUGGUUUUCCCCUGAUAGUGCUAAGGGGGCCUGGAAGUUUGGACUGGGCAGAGCUCAACACAGCGUGGCAAAGUGGCUGUGGCUAGACUGCCUCUCUGGAUUCCUCGUCACUCAGCAGGGCAUCUCUGAGAGAAAUGCC
# Variants of: B1
# Experiment: self-cleavage, relative activity (ratio to wild type); higher = more cleavage; in vitro, sequencing; the parent is a self-cleaving ribozyme
row,Variant,self-cleavage
1,U9C U15C G49U U130C,1.21
2,U9A G34U U46A,1.27
3,U9A U47C U132C,0.89
4,U9G A42U U46C U62C G86A C146U,0.06
5,U9C U15A A24U G35U A94G A121G,0.48
6,U9G A59C U62C,0
7,U9C U20G G33U,2.3
8,U9C G21A A142G,1.35
9,U9G A42U G48A U62C A140G,0.1
10,G10A A57G U104C A124U,1.51
11,U9G U96C A140U,0.55
12,U9C A79G U100C,1.79
13,U9A U15G U45A,0.94
14,U9C U12C U134A,1.13
15,U9C U13A A136U,1.18
16,U9A U20C A140G,0
17,U9A U29A A138G,1.27
18,U9C A22G U52C,0.84
19,U9A U62C C76U,0.03
20,U9C U29A A42G U45C,1.07
21,U9C A42G U52A,1.87
22,U9C A24G A59G U73A,0.14
23,U9C A30G G36U U46C A138G,1.11
24,U9C U47A A124G,0.33

row,Variant,self-cleavage
1,U9C U73C U87A A142G,0.22
2,U9C A31G C56A U91C,0.2
3,U9C U23C U104C U134A A138G,0.44
4,U9C U26C A136G,0.82
5,U9C C66A U87C A138G C146A,0.66
6,U9C G49A A92U,0.5
7,U9C U14C A129G A140G,2.55
8,U9C U15C A42G U112A,1.31
9,U9C U13C U29A G88A U112C A136G,0.19
10,U9C C51G C123U A138G,1.56
11,U9A U12C A77G G82A A136U,1.56
12,U9C C68U U96A U130C,0
13,U9C U13A U143C,1.15
14,U9A A78U A121U A141G,1.49
15,U9A C116U A124G,0.68
16,U9C U14A U73A,1.07
17,G10U G70A U87C,0.03
18,U9C G11A G34A C84U,0.37
19,U9C G27A U62C A92U A121G,0.08
20,U9C A69G U87G A121U G135U,0
21,U9C G58A A67G U104C A141G,0.25
22,U9C U85A C128U A140U,0.12
23,U9A U134A A140G,0.12
24,U9C A77G G139A,1.68

row,Variant,self-cleavage
1,U9A C18U U29C A57G A59U U73C,0
2,U9C A107G A117U,1.8
3,U9A A67U U87C A140G,0
4,U9G A69G U143G,0.84
5,G10A U14C A42G U73C U81A U96C G125U,0.3
6,U9C A42G A141G,1.37
7,U9A U47C U81A A140G A142G,1.93
8,U9C A67G U134C,0.4
9,U9C U20C U130C A140U,1.8
10,U9C U100C A138G,1.75
11,U9A G53U U130C A136G U143A,1.19
12,U9C U85A A94G,0.36
13,U9C G21A A43G A78U C90U,0.13
14,U9A G80A A138U,1.65
15,U9C A22U G49A A65G U87A U109C U134A A138G U143A,0.13
16,U9C A57G U81A,1.81
17,U9C A22U G74A A138G,1.11
18,U9C U15C U115C,0
19,U9C U14A A124G,0.56
20,U9C U14C A94G,0.11
21,U9C U14C U104C A138G,0.77
22,G10A U52C A78G U112C A129G A136G,0
23,U9C A69G U134C,0.28
24,U9A G27A U62C A64U,0.11

row,Variant,self-cleavage
1,U9C U39C A50G,0.55
2,U9C U13C U81A A138G A142G,2.22
3,U9C A69U U134G,0.2
4,U9C U91C U96C U143C,0
5,U9C U62C G75A A124G A140G,0
6,U9A U12C U73A U130C A138U,0.98
7,U9C A30G A94G,0.99
8,U9C U23C G75A A77G U100C A140G,1.26
9,U9C U15C U85G U87A G106U,0.17
10,U9C A117U U130A,1.67
11,U9G C66A U115C,0.07
12,U9C U52C C90U A136G C146U,0.07
13,U9C U29C A138G,0.79
14,U9A U62C U115C,0
15,U9C U12C U13C A64U U130G A142G,0.89
16,U9A U39A A129G,1.05
17,U9C G44A U143A,1.58
18,U9A U81C U85A,0.03
19,U9C U73C G125A,1.88
20,U9C U119A A138G G144A,1.31
21,U9G U13C A117U,1.7
22,U9C G34A U96C,0.26
23,G10A U45A A67G,0.27
24,U9C U39C U62A,0.12

row,Variant,self-cleavage
1,U9C U102G A129G,0.61
2,U9A U13C A107G,0.5
3,U9A U12C A142U,0.99
4,G10A A57G U87A,0.13
5,U9G U20A U39A U46A A94C,0.07
6,U9A G74A A141G,0.94
7,G10A U14A A22G A78G U100A,0.1
8,U9C C51U C63A U102C,0.11
9,U9C U62C C76U A94G,0.07
10,U9C U115A U119A,1.65
11,U9A A77G U85C,0.82
12,U9G G83C A117U,0.8
13,U9A U73C U112C A141C,0.88
14,U9C U14C G89A,0.32
15,U9A A69G A124G,0.32
16,U9A U15A U102C A107G,0
17,U9C U52C A94U G135U,0.9
18,U9A U29A A124C A140G U143A,0.5
19,G10C U15C A129G,0.94
20,U9C U13C U26A,0.84
21,U9A U115C U130C,0
22,U9C U62C A142G,0.13
23,U9C U81A G88A,0.09
24,U9C U26C C28A U96A U119C A140G,0.35

row,Variant,self-cleavage
1,U9C U52C C76U A79G U115C A141U,2.02
2,U9C U13C U87C U102C,1.84
3,U9A U39C U46A A65U U104G U112C,0.12
4,G10A U12A U14C U52A,0.62
5,U9C A30G A69G U119A A140G,2.51
6,U9A U45C C118A A138G,1.32
7,U9C U26C C116A,1.24
8,U9A G55C U91A,0.2
9,U9C U46C A57G A69U,0.23
10,G10U U46C U100C,1.8
11,U9A U15C U62C A65G C71U,0
12,U9A U14C U104C C113U,2.43
13,U9A U46C U130C,1.15
14,U9A U47A U132C A142G,0.81
15,G10U U13C U47C A138U A141C A142G,1.67
16,U9C U23C U62C U132C A136G,0
17,U9C U14C U23A A78G U132C G135A,0.54
18,U9A G80A U115C,1.81
19,U9C U20A U87A A124U A138G,0.08
20,U9A A67U U91C,0.07
21,U9G A92G G114C,0.18
22,G10A U29C U62C A77G,0.35
23,U9C U39C A59U A69U,0
24,G10A U20A A94U U115C,0.12

row,Variant,self-cleavage
1,U9C U26C C99A,0.71
2,U9A U13C A65G G114A,0.43
3,U9A G25A A69G,0
4,U9C U13C U15A A22G A107G A142G,0
5,U9C U13C A142G,1.64
6,U9A U73C U85C,0.35
7,U9C A57G U119C U130C,1.67
8,U9C G36A U45G A141G,0.47
9,U9C U26C U87C A124U,0.66
10,U9A A78U U100C A142G,1.65
11,U9C A42G C98U,0.6
12,U9G A24G U109A A129G,1.02
13,U9C A42G U46C A50G G60A G126U,0.19
14,U9C A69U A78G C131A,0.09
15,U9C U13G U143C,1.21
16,U9A G105A A117U,0.74
17,U9C A43U U52A,0.7
18,U9C U29C U62A,0.14
19,U9A U13C A140G,0.56
20,U9C G89U C123U,0.09
21,U9C U39A A92U A142C,1.13
22,U9C U23C C66U U85C,0.06
23,U9A U102C U109A A138G,1.45
